Reference: the supplement of paper PMC6206098
± gives the uncertainty stated by the source. The sequences are guide strands of siRNAs; only the seed at positions 2 to 7 varies.

Tests used:
3LL = assay: cell viability relative to siNT1 control; higher = less toxic; conditions: concentration: 10 nM; 96 h; Mus musculus;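 note: Luminescence-based viability of cells reverse transfected in 384-well plates with lipid-complexed siRNAs built on a non-toxic 19mer backbone whose passenger strand carries 2′-O-methyl groups at positions 1 and 2, triplicates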
M565 = assay: cell viability relative to lipid-only control; HeyA8 human ovarian and H460 human lung cancer; M565 mouse liver and 3LL mouse lung cancer; siNT1 is a non-toxic control siRNA; higher = less toxic; conditions: concentration: 10 nM; 96 h; Mus musculus
Protocol: (§1)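 Arrayed screen of 4096 siRNA duplexes, each carrying one of all possible 6mer seeds at guide-strand positions 2-7 in a fixed neutral 19mer scaffold (constant flanks: U at position 1, then ACAUGUAAACCA, plus a 3' AA overhang). The passenger strand is 2'-O-methylated at positions 1-2 so only the guide strand loads into RISC. Duplexes were reverse-transfected at 10 nM with RNAiMAX in triplicate in 384-well plates; viability was read by CellTiter-Glo ATP content 96 h after transfection. Values are % viability normalised to lipid-only wells (HeyA8, H460, M565) or to siNT1 (3LL).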

HeyA8 = assay: as above; conditions: concentration: 10 nM; 96 h; Homo sapiens
Protocol: as §1

H460 = assay: as above; conditions: concentration: 10 nM; 96 h; Homo sapiens
Protocol: as §1
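Throughout, for cell viability relative to lipid-only control: reverse lipid transfection in 384-well plates, in triplicate, of duplexes on a non-toxic 19mer backbone with passenger strand 2′-O-methylated at positions 1 and 2, luminescence viability read-out.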

Row | Sequence | cell viability (3LL) [%] | cell viability (M565) [%] | cell viability (HeyA8) [%] | cell viability (H460) [%]
1 | UCGAGAAACAUGUAAACCAAA | 89 ± 18 | 68.2 ± 5.7 | 84.6 ± 10 | 65.5 ± 2.1
2 | UCGACGGACAUGUAAACCAAA | 93 ± 17 | 64.8 ± 15 | 87 ± 4.9 | 62.2 ± 8.8
3 | UGCUAGUACAUGUAAACCAAA | 44.3 ± 5.3 | 40 ± 2.7 | 24.8 ± 3.1 | 20.7 ± 0.73
4 | UGGGUGUACAUGUAAACCAAA | 51.4 ± 10 | 18.4 ± 2.2 | 2.67 ± 0.22 | 21.2 ± 0.79
5 | UCGUAUCACAUGUAAACCAAA | 88 ± 14 | 76.9 ± 1.3 | 49.7 ± 1.5 | 66.6 ± 0.84
6 | UCACAAAACAUGUAAACCAAA | 101 ± 14 | 81.4 ± 11 | 90 ± 3.3 | 28.2 ± 2.5
7 | UCCCCCGACAUGUAAACCAAA | 99.2 ± 13 | 57.7 ± 11 | 84.2 ± 2.4 | 85.6 ± 17
8 | UACAUCCACAUGUAAACCAAA | 7.76 ± 1.3 | 19.4 ± 8 | 38.4 ± 1.1 | 39.8 ± 0.79
9 | UAGUAACACAUGUAAACCAAA | 63.3 ± 7.5 | 48.2 ± 3.1 | 10.4 ± 1.1 | 51.3 ± 6.4
10 | UUGAAGGACAUGUAAACCAAA | 30 ± 5.6 | 57.2 ± 5.5 | 70.8 ± 10 | 70.3 ± 7.7
11 | UAGUAGGACAUGUAAACCAAA | 46.4 ± 9.2 | 52.6 ± 4.9 | 23.7 ± 3.9 | 39.6 ± 3.3
12 | UGACGGGACAUGUAAACCAAA | 23.5 ± 2.8 | 15.2 ± 1.4 | 46.7 ± 2.2 | 37.2 ± 1.9
13 | UGGUUACACAUGUAAACCAAA | 95.5 ± 13 | 77.9 ± 7.2 | 77 ± 4.1 | 70.4 ± 16
14 | UACAUAGACAUGUAAACCAAA | 88.9 ± 13 | 66.1 ± 10 | 82.1 ± 7.4 | 76.3 ± 21
15 | UUAUAUAACAUGUAAACCAAA | 86.7 ± 6.8 | 93 ± 12 | 102 ± 3.5 | 68.3 ± 13
16 | UUACCCCACAUGUAAACCAAA | 5.68 ± 1.3 | 25 ± 4.9 | 52.8 ± 4.8 | 15.3 ± 1.4
17 | UUGUGCAACAUGUAAACCAAA | 75.4 ± 4.7 | 82.1 ± 16 | 70.9 ± 6 | 92.2 ± 12
18 | UAUUGUAACAUGUAAACCAAA | 110 ± 11 | 103 ± 9.7 | 96 ± 18 | 82.2 ± 23
19 | UAGGCCUACAUGUAAACCAAA | 34.9 ± 6.8 | 5.72 ± 1.4 | 29.7 ± 2.2 | 56.8 ± 7.3
20 | UCGCAGUACAUGUAAACCAAA | 73 ± 21 | 53.2 ± 5.4 | 55 ± 1.9 | 68.2 ± 3.3
21 | UGUAGAGACAUGUAAACCAAA | 81.5 ± 1.4 | 41.7 ± 8.4 | 72.7 ± 11 | 62.4 ± 12
22 | UGCCUGAACAUGUAAACCAAA | 66.1 ± 7.8 | 41.9 ± 6.7 | 15.3 ± 0.85 | 49.4 ± 1.5
23 | UCUCGUUACAUGUAAACCAAA | 94.4 ± 14 | 65.6 ± 6.5 | 87.8 ± 8.2 | 57.3 ± 5.9
24 | UAAAAAAACAUGUAAACCAAA | 112 ± 13 | 106 ± 20 | 96.8 ± 4.2 | 87.2 ± 30
25 | UGGCGAAACAUGUAAACCAAA | 80.1 ± 6.9 | 41.9 ± 6.2 | 38.3 ± 4.2 | 34.4 ± 13
26 | UUAAAACACAUGUAAACCAAA | 87.8 ± 6.5 | 106 ± 11 | 100 ± 5.2 | 60.8 ± 5.6
27 | UGGGACAACAUGUAAACCAAA | 83.7 ± 6.4 | 17.3 ± 7.3 | 85.5 ± 0.96 | 48.4 ± 8.8
28 | UCUGAAAACAUGUAAACCAAA | 99.3 ± 19 | 76.8 ± 13 | 90.9 ± 8 | 71.6 ± 13
29 | UUGCGCGACAUGUAAACCAAA | 96.7 ± 6.8 | 56.2 ± 7.9 | 96.4 ± 2.9 | 72.8 ± 5.8
